53 compounds from ChEMBL document CHEMBL4888484, “Replenishing the malaria drug discovery pipeline: Screening and hit evaluation of the MMV Hit Generation Library 1 (HGL1) against asexual blood stage Plasmodium falciparum ,using a nano luciferase reporter read-out” (2022) can be followed below.

Structures are written as SMILES. Screen size: about 150,000 compounds; about 540 (0.36%) showed an effect of 50% or more. The list shows a part of the results.

This experiment has as its system Plasmodium falciparum. Description: Primary screen in NF54 nanoGlo assay, in single point, at 2uM, 72h; a lower Z score goes with more inhibition. The format is functional, Erythrocyte. Particulars: timepoint 72 hour.
In general, % Inhibition refers to the change of the read-out against control, counted positive when it falls. On to `O=C(c1ccc(OCC(F)(F)F)nc1)N1CCC2(CC1)OCCO2`, for which the “% Inhibition” value was -46% and the Z score came out at 5.44.
Turning to `CN1CC[C@H]2CC[C@@H](C1)N2c1nccc(C2CCCC2)n1`, the “% Inhibition” value is listed as -16% and the Z score worked out at 1.5.
As for `CC(C)CC(=O)N1[C@H]2CC[C@@H]1c1cnc(-c3ccc(F)cc3)nc1C2`, the “% Inhibition” value is on record as 1% and the Z score was -0.08.
The corresponding values for `Cc1ccc(OC(=O)Nc2ccc(Br)cc2Br)c(-n2nc3ccccc3n2)c1` are 1% and -0.13.
The matching figures for `O=S1(=O)C[C@@H]2[C@H](C1)N(Cc1cccnc1)CCN2CC1CC1`: -5% and 1.04.
The matching figures for `CN(C)c1nc(-c2cccc(C(=O)N[C@H]3COC[C@@H]3N3CCCC3)c2)nn1C`: -10% and 1.94.
Regarding `Cc1ccc2c(c1)C[C@]1(CN2C)C(=O)N(c2cccc3ccccc23)C(=O)N=C1O`, the “% Inhibition” value is given as 14% and the Z score is -1.7.
The corresponding values for `OC(c1ccccc1)(c1ccccc1)[C@@H]1CCCCCN1` are -16% and 2.4.
The corresponding values for `Brc1cccc(C[C@H]2CCCN2)c1` are 15% and -1.98.
The matching figures for `C[C@@H](Cn1cncn1)NCc1ccccn1`: 2% and -0.16.
Regarding `Cc1noc(C)c1CN(C)[C@@H](C)Cc1cnccn1`, the “% Inhibition” value is -8% and the Z score is recorded as 1.09.
For the compound `COc1ccc(S(=O)(=O)N2CC[C@@]3(C2)C(=O)N(C)c2ccc(OC)cc23)cc1`, the “% Inhibition” value stood at 2% and the Z score was -0.22.
The matching figures for `CC[C@H](Oc1cc(C)c(Cl)c(C)c1)C(=O)N1CCC2(CC1)OCCO2`: -5% and 0.5.
Take `NC(=O)c1cn(C2CN(CC3CCCCC3)C2)nn1`: the “% Inhibition” value is -4% and the Z score came to 0.75.
Turning to `CC(C)c1cc(C(=O)N2CC[C@H]3CC[C@@H](C2)N3C)nc2ncnn12`, the “% Inhibition” value is reported as -19% and the Z score amounted to 2.59.
The corresponding values for `Cn1cc(C(=O)N2C[C@H](O)[C@@H](F)C2)c2ccccc21` are -13% and 1.21.
The corresponding values for `Cc1cccc2c1c(-c1cccc(C(=O)N[C@H]3CN4CCC3CC4)c1)nn2C` are 13% and -1.82.
In the case of `COc1ccccc1[C@H]1CN(C(=O)c2cc(=O)[nH]c(=O)[nH]2)[C@@H]2C3CCN(CC3)[C@H]12`, the “% Inhibition” value is -7% and the Z score came out at 0.73.
As for `CCCOC[C@@H](N)Cc1cccc(Br)c1`, the “% Inhibition” value was -8% and the Z score is 1.07.
On to `CN1CCC(N(C)c2ccccc2CN2CCC(C(C)(C)C)C(O)C2)CC1` (stereo unspecified), for which the “% Inhibition” value came to 11% and the Z score was -1.58.
The matching figures for `CCC(CC)c1cc([C@H]2CN3CC[C@H]2C[C@@H]3CNC(=O)Cc2cccs2)nc(-c2ccncc2)n1`: 36% and -0.74.
`CCCn1ncc(C(=O)N(Cc2ccc3c(c2)OCO3)C2CC2)c1C`: the “% Inhibition” value is recorded as -11% and the Z score came out at 1.65.
The corresponding values for `C[C@@H](C1CC1)N(C(=O)c1cn(C)c2ccccc12)C1CC1` are 10% and -1.34.
The matching figures for `O=c1cc2c(n[nH]1)CCN(CCN1CC3CCC(C1)O3)C2`: -5% and 0.97.
Turning to `CN[C@@H](C)Cc1noc(-c2cncc(-c3ccc4c(c3)CCO4)c2)n1`, the “% Inhibition” value is given as -26% and the Z score is reported as 3.72.
The corresponding values for `Cc1nc(CN2CCC3CCC(C2)N3C)oc1C` (stereo unspecified) are -4% and 0.67.
In the case of `CCCN1CC[C@H]2CC(=O)Nc3cccnc3OCC[C@H]2C1`, the “% Inhibition” value is reported as -12% and the Z score was 1.93.
Take `CN(C)CC#CCNC(=O)Cc1ccc(F)cc1`: the “% Inhibition” value is given as -8% and the Z score came to 1.54.
The matching figures for `O=C1NC(=O)C2(Cc3ccccc3N3CCCC32)C(=O)N1c1ccc(F)cc1` (stereo unspecified): -8% and 0.98.
For `COc1cccc([C@H]2CN(C)[C@@H]3C4CCN(CC4)[C@H]23)c1`, the “% Inhibition” value is -9% and the Z score turned out to be 1.8.
The matching figures for `Cc1c(C(=O)NC[C@H]2CN3CCN2CC3)nnn1C`: 4% and -0.84.
The corresponding values for `Cc1cc(CN2CCCC23CCN(c2ncccn2)CC3)on1` are 2% and -0.37.
The corresponding values for `CC(C)NC(=O)N1C[C@@H]2C[C@H](C1)c1c(-c3ccccc3)ccc(=O)n1C2` are -5% and 0.92.
Consider `COc1ccc2c(c1)[C@@]1(CCN(S(=O)(=O)c3ccc(F)c(C)c3)C1)C(=O)N2C`, for which the “% Inhibition” value amounted to 5% and the Z score is on record as -0.66.
The corresponding values for `CN(C)CC#CCNC(=O)NCc1cccs1` are -7% and 1.23.
The corresponding values for `COc1ccncc1CNCc1ccccc1N(C)C1CCN(C)CC1` are -6% and 0.7.
As to `CN1C(=O)C(C(=O)CCc2cc3ccccc3o2)C(=O)N(C)C1=O`, the “% Inhibition” value is on record as -9% and the Z score was 1.54.
The matching figures for `COCCO[C@H]1CCCN(C2CCC2)C1`: -5% and 0.67.
In the case of `O=c1[nH]nc([C@H]2CCCN(c3ncnc4ccc(F)cc34)C2)o1`, the “% Inhibition” value was -5% and the Z score came out at 0.39.
For `Cn1c(NC(=O)C2CN3CCCN2CC3)nc2cccnc21` (stereo unspecified), the “% Inhibition” value amounted to 4% and the Z score was -0.63.
The corresponding values for `CC(C)n1nnc2cc(S(=O)(=O)N3CCC[C@H](C(=O)N4CCC5(CC4)OCCO5)C3)ccc21` are -21% and 1.85.
In the case of `COc1cccc([C@H]2CN(c3nccs3)[C@@H]3C4CCN(CC4)[C@H]23)c1`, the “% Inhibition” value was -12% and the Z score is 1.61.
In the case of `NCCc1ccccc1-c1ccc2c(c1)OCCO2`, the “% Inhibition” value was -4% and the Z score was determined as 0.57.
The matching figures for `CCCCn1nnnc1CN[C@@H](C)Cn1cccn1`: -9% and 1.66.
On to `c1cnc(N2C[C@H](c3ccc4c(c3)OCO4)[C@@H]3[C@H]2C2CCN3CC2)nc1`, for which the “% Inhibition” value is -3% and the Z score came to 0.3.
The corresponding values for `CN1C[C@H](c2ccc(F)cc2)C(C(=O)c2ccccc2)[C@]12C(=O)Nc1ccccc12` (stereo partly specified) are 5% and -0.72.
For `COc1cccc(C[C@H](C)NC(=O)NCc2sc(C)nc2C)c1`, the “% Inhibition” value is -12% and the Z score is recorded as 0.99.
As to `CN1CCCCCCN(Cc2ccccn2)[C@H]2CCC[C@H]2C1=O`, the “% Inhibition” value amounted to 10% and the Z score was -1.3.
Consider `COc1ccccc1[C@@H]1CN(c2ncccn2)[C@@H]2C3CCN(CC3)[C@@H]21`, for which the “% Inhibition” value stood at 1% and the Z score is -0.24.
The matching figures for `Cc1noc(C)c1CN1C[C@@H]2Oc3ncccc3S(=O)(=O)N[C@@H]2C1`: -6% and 0.85.
Turning to `Cc1nc(-c2cc(F)cc(F)c2)c(N)c(N(C)C2CCN(C)CC2)n1`, the “% Inhibition” value was -9% and the Z score turned out to be 1.38.
For the compound `Cc1noc2ncc(C(=O)N3CCC4(CC3)OCCO4)cc12`, the “% Inhibition” value is 5% and the Z score is -0.82.
In the case of `O=c1[nH]c2ccc(S(=O)(=O)N3CCC[C@@H]3C(F)F)cc2o1`, the “% Inhibition” value amounted to 2% and the Z score is on record as -0.21.
